Assay results: the BET-seq Pho4 binding data (Le et al. 2018)
The list shows a part of the results. Values were computed here from the reads of four pooled replicates and scatter widely.

The sequences below were run against T1, Pho4 (S. cerevisiae) (UniProt P07270) (assay: relative binding free energy (BET-seq); higher = weaker binding). Settings: reference: library average.
T1 sequence: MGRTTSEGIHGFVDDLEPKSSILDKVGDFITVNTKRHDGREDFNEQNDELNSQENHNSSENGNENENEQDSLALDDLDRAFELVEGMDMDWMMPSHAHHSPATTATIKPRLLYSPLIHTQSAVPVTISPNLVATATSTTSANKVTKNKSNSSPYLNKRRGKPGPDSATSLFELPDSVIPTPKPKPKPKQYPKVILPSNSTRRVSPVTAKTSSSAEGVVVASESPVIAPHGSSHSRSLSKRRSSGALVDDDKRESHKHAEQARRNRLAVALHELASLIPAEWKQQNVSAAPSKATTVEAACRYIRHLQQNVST

Question: With ATGTACACGTGACTGT as the sequence, how does the “relative binding free energy” value read?
Answer: Its value is 0.19 kcal/mol.

Question: How did the “relative binding free energy” value turn out when CAAGGCACGTGTGGGT was run?
Answer: Its value is 0.02 kcal/mol.

Question: How did the “relative binding free energy” value turn out when AATTTCACGTGGGCGC was run?
Answer: The value was 0.31 kcal/mol.

Question: Which “relative binding free energy” value does the source give for TTTGGCACGTGAACCG here?
Answer: Its value is 0.2 kcal/mol.

Question: How did the “relative binding free energy” value turn out when GCAGTCACGTGGGAGT was run?
Answer: Its value is -0.09 kcal/mol.

Question: With GGTCACACGTGTGGGG as the sequence, how does the “relative binding free energy” value read?
Answer: Its value is 0.13 kcal/mol.

Question: Which “relative binding free energy” value does the source give for TGTGCCACGTGGGTAG here?
Answer: The value was -0.25 kcal/mol.

Question: TTGCGCACGTGAGAGG was tested. Which “relative binding free energy” value did it give?
Answer: The value was 0.23 kcal/mol.

Question: With GATGGCACGTGAAAGG as the sequence, how does the “relative binding free energy” value read?
Answer: Its value is 0.22 kcal/mol.

Question: For GGGATCACGTGGGGTT, which “relative binding free energy” value is on record?
Answer: Its value is 0.1 kcal/mol.

Question: How did the “relative binding free energy” value turn out when TGTTACACGTGCGAGT was run?
Answer: The value was 0.06 kcal/mol.

Question: How did the “relative binding free energy” value turn out when CTTGTCACGTGTTGCG was run?
Answer: Its value is 0.13 kcal/mol.

Question: Which “relative binding free energy” value does the source give for TGAGACACGTGAATTT here?
Answer: The value was 0.25 kcal/mol.

Question: How did the “relative binding free energy” value turn out when TTTAGCACGTGATCGT was run?
Answer: The value was -0.07 kcal/mol.

Question: With GGCGTCACGTGGATGT as the sequence, how does the “relative binding free energy” value read?
Answer: Its value is 0.24 kcal/mol.

Question: How did the “relative binding free energy” value turn out when TTTAACACGTGGGACT was run?
Answer: Its value is -0.05 kcal/mol.

Question: How did the “relative binding free energy” value turn out when CTTTGCACGTGTTTTG was run?
Answer: Its value is 0.05 kcal/mol.

Question: With CTTTGCACGTGTTAAT as the sequence, how does the “relative binding free energy” value read?
Answer: Its value is -0.1 kcal/mol.

Question: TGATGCACGTGTATGG was tested. Which “relative binding free energy” value did it give?
Answer: The value was 0.09 kcal/mol.

Question: For CTTGGCACGTGTCGGG, which “relative binding free energy” value is on record?
Answer: Its value is -0.02 kcal/mol.

Question: Which “relative binding free energy” value does the source give for GTCAGCACGTGTTGGG here?
Answer: Its value is 0.03 kcal/mol.

Question: Which “relative binding free energy” value does the source give for ATATACACGTGAGGCG here?
Answer: Its value is 0.32 kcal/mol.

Question: For TGTAACACGTGGGATT, which “relative binding free energy” value is on record?
Answer: The value was -0.16 kcal/mol.

Question: How did the “relative binding free energy” value turn out when GGTGCCACGTGCATGG was run?
Answer: The value was -0.06 kcal/mol.

Question: How did the “relative binding free energy” value turn out when GTGGCCACGTGTTCAG was run?
Answer: Its value is -0.02 kcal/mol.

Question: GGTCGCACGTGACGGG was tested. Which “relative binding free energy” value did it give?
Answer: Its value is 0 kcal/mol.

Question: TGGTGCACGTGGCCGG was tested. Which “relative binding free energy” value did it give?
Answer: Its value is -0.18 kcal/mol.

Question: How did the “relative binding free energy” value turn out when TCTGGCACGTGGCTAT was run?
Answer: Its value is -0.02 kcal/mol.

Question: With CCGGTCACGTGGGAGG as the sequence, how does the “relative binding free energy” value read?
Answer: Its value is -0.06 kcal/mol.

Question: With GTTATCACGTGGATTA as the sequence, how does the “relative binding free energy” value read?
Answer: The value was 0.15 kcal/mol.

Question: For GGGGGCACGTGTAGGT, which “relative binding free energy” value is on record?
Answer: The value was -0.04 kcal/mol.

Question: Which “relative binding free energy” value does the source give for CACGGCACGTGGGGGT here?
Answer: The value was -0.18 kcal/mol.

Question: AGTCGCACGTGTCTGG was tested. Which “relative binding free energy” value did it give?
Answer: Its value is -0.14 kcal/mol.

Question: With AAAGCCACGTGTGTTT as the sequence, how does the “relative binding free energy” value read?
Answer: The value was 0.09 kcal/mol.

Question: How did the “relative binding free energy” value turn out when TTAGTCACGTGGTTAT was run?
Answer: The value was -0.01 kcal/mol.

Question: TACATCACGTGATTTG was tested. Which “relative binding free energy” value did it give?
Answer: Its value is 0.23 kcal/mol.

Question: How did the “relative binding free energy” value turn out when TTCAGCACGTGTCTTG was run?
Answer: Its value is -0.07 kcal/mol.

Question: Which “relative binding free energy” value does the source give for CTGGGCACGTGAGTGA here?
Answer: The value was -0.09 kcal/mol.

Question: With TTATTCACGTGTGACG as the sequence, how does the “relative binding free energy” value read?
Answer: Its value is 0.32 kcal/mol.

Question: How did the “relative binding free energy” value turn out when CAATTCACGTGGGTGT was run?
Answer: The value was 0.11 kcal/mol.

Question: With TGTGACACGTGATTAT as the sequence, how does the “relative binding free energy” value read?
Answer: Its value is 0.1 kcal/mol.

Question: How did the “relative binding free energy” value turn out when CGGAGCACGTGGCGGT was run?
Answer: Its value is -0.1 kcal/mol.

Question: How did the “relative binding free energy” value turn out when AAGATCACGTGAGTAT was run?
Answer: Its value is 0.52 kcal/mol.

Question: TTGTGCACGTGTAAGG was tested. Which “relative binding free energy” value did it give?
Answer: Its value is 0.11 kcal/mol.

Question: For CGGCGCACGTGTGCGT, which “relative binding free energy” value is on record?
Answer: The value was -0.04 kcal/mol.

Question: TCGTCCACGTGGGGGA was tested. Which “relative binding free energy” value did it give?
Answer: The value was -0.2 kcal/mol.

Question: GGCTGCACGTGGCGTT was tested. Which “relative binding free energy” value did it give?
Answer: Its value is -0.06 kcal/mol.

Question: GGATTCACGTGTGCAT was tested. Which “relative binding free energy” value did it give?
Answer: Its value is 0.28 kcal/mol.

Question: How did the “relative binding free energy” value turn out when TTTAACACGTGGCATG was run?
Answer: The value was -0.2 kcal/mol.

Question: For GTTGTCACGTGGGCTT, which “relative binding free energy” value is on record?
Answer: The value was 0 kcal/mol.

Question: With AGCCGCACGTGTGGGT as the sequence, how does the “relative binding free energy” value read?
Answer: Its value is -0.08 kcal/mol.

Question: GCTGGCACGTGCGGTT was tested. Which “relative binding free energy” value did it give?
Answer: The value was -0.01 kcal/mol.

Question: How did the “relative binding free energy” value turn out when GCATGCACGTGGGGCT was run?
Answer: Its value is -0.21 kcal/mol.

Question: With GTGATCACGTGCGTAT as the sequence, how does the “relative binding free energy” value read?
Answer: Its value is 0.07 kcal/mol.

Question: Which “relative binding free energy” value does the source give for TGGCTCACGTGGAGTT here?
Answer: Its value is 0.31 kcal/mol.

Question: How did the “relative binding free energy” value turn out when GATGTCACGTGTTCAT was run?
Answer: The value was 0.1 kcal/mol.

Question: For GTGGGCACGTGTGGGC, which “relative binding free energy” value is on record?
Answer: Its value is 0.1 kcal/mol.

Question: ATCAACACGTGGGGTT was tested. Which “relative binding free energy” value did it give?
Answer: Its value is -0.15 kcal/mol.
